Publication PMC9911399, “Two distinct binding modes provide the RNA-binding protein RbFox with extraordinary sequence specificity”
Changes are numbered by the printed parent chain; changes in the protein carry UniProt numbers. Some of the results follow.

T1: RBFOX1 RRM (Homo sapiens, UniProt Q9NWB1 109-208)
T1 sequence: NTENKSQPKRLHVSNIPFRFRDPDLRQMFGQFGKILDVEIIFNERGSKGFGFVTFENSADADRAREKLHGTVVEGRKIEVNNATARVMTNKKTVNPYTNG

B1: GUAUAGG (DNA:RNA)
RNA: GGGAGACCGGAAUUCAGAUUGUCCGUAUAGGUUAAAUCCCGUCGUAGCCACCA
DNA 1: CAATCTGAATTCCGGTCTCCC
DNA 2: TGGTGGCTACGACGGGATT
B2: CGGUCUG (DNA:RNA)
RNA: B1 RNA with G25C, U26G, A27G, A29C, G30U
DNA 1: CAATCTGAATTCCGGTCTCCC
DNA 2: TGGTGGCTACGACGGGATT
B3: AGUGUUU (DNA:RNA)
RNA: GGGAGACCGGAAUUCAGAUUGUCCAGUGUUUUUAAAUCCCGUCGUAGCCACCA
DNA 1: CAATCTGAATTCCGGTCTCCC
DNA 2: TGGTGGCTACGACGGGATT
B4: CUACGCC (DNA:RNA)
RNA: B1 RNA with G25C, U28C, A29G, G30C, G31C
DNA 1: CAATCTGAATTCCGGTCTCCC
DNA 2: TGGTGGCTACGACGGGATT
B5: GCGUAGU (DNA:RNA)
RNA: B1 RNA with U26C, A27G, G31U
DNA 1: CAATCTGAATTCCGGTCTCCC
DNA 2: TGGTGGCTACGACGGGATT
B6: UGGUACG (DNA:RNA)
RNA: B1 RNA with G25U, U26G, A27G, G30C
DNA 1: CAATCTGAATTCCGGTCTCCC
DNA 2: TGGTGGCTACGACGGGATT
B7: CUGAGUA (DNA:RNA)
RNA: B3 RNA with A25C, G26U, U27G, G28A, U29G, U31A
DNA 1: CAATCTGAATTCCGGTCTCCC
DNA 2: TGGTGGCTACGACGGGATT
B8: GCUCUGC (DNA:RNA)
RNA: B3 RNA with A25G, G26C, G28C, U30G, U31C
DNA 1: CAATCTGAATTCCGGTCTCCC
DNA 2: TGGTGGCTACGACGGGATT
B9: CUCACGG (DNA:RNA)
RNA: B1 RNA with G25C, A27C, U28A, A29C
DNA 1: CAATCTGAATTCCGGTCTCCC
DNA 2: TGGTGGCTACGACGGGATT
B10: UGCCGCA (DNA:RNA)
RNA: B3 RNA with A25U, U27C, G28C, U29G, U30C, U31A
DNA 1: CAATCTGAATTCCGGTCTCCC
DNA 2: TGGTGGCTACGACGGGATT
B11: AAGAGCG (DNA:RNA)
RNA: B3 RNA with G26A, U27G, G28A, U29G, U30C, U31G
DNA 1: CAATCTGAATTCCGGTCTCCC
DNA 2: TGGTGGCTACGACGGGATT
B12: CGCGGAA (DNA:RNA)
RNA: B3 RNA with A25C, U27C, U29G, U30A, U31A
DNA 1: CAATCTGAATTCCGGTCTCCC
DNA 2: TGGTGGCTACGACGGGATT
B13: GGUAAGA (DNA:RNA)
RNA: B1 RNA with U26G, A27U, U28A, G31A
DNA 1: CAATCTGAATTCCGGTCTCCC
DNA 2: TGGTGGCTACGACGGGATT
B14: UGACGAA (DNA:RNA)
RNA: B3 RNA with A25U, U27A, G28C, U29G, U30A, U31A
DNA 1: CAATCTGAATTCCGGTCTCCC
DNA 2: TGGTGGCTACGACGGGATT
B15: GGAUCCG (DNA:RNA)
RNA: B1 RNA with U26G, A29C, G30C
DNA 1: CAATCTGAATTCCGGTCTCCC
DNA 2: TGGTGGCTACGACGGGATT
B16: AUGGAAU (DNA:RNA)
RNA: B3 RNA with G26U, U27G, U29A, U30A
DNA 1: CAATCTGAATTCCGGTCTCCC
DNA 2: TGGTGGCTACGACGGGATT
B17: GGCCGGC (DNA:RNA)
RNA: B1 RNA with U26G, A27C, U28C, A29G, G31C
DNA 1: CAATCTGAATTCCGGTCTCCC
DNA 2: TGGTGGCTACGACGGGATT
B18: AUACCGG (DNA:RNA)
RNA: B1 RNA with G25A, U28C, A29C
DNA 1: CAATCTGAATTCCGGTCTCCC
DNA 2: TGGTGGCTACGACGGGATT
B19: AGUCCUG (DNA:RNA)
RNA: B3 RNA with G28C, U29C, U31G
DNA 1: CAATCTGAATTCCGGTCTCCC
DNA 2: TGGTGGCTACGACGGGATT
B20: UCGCCAG (DNA:RNA)
RNA: B1 RNA with G25U, U26C, A27G, U28C, A29C, G30A
DNA 1: CAATCTGAATTCCGGTCTCCC
DNA 2: TGGTGGCTACGACGGGATT
B21: UCGCGCU (DNA:RNA)
RNA: B3 RNA with A25U, G26C, U27G, G28C, U29G, U30C
DNA 1: CAATCTGAATTCCGGTCTCCC
DNA 2: TGGTGGCTACGACGGGATT
B22: AGCCACU (DNA:RNA)
RNA: B3 RNA with U27C, G28C, U29A, U30C
DNA 1: CAATCTGAATTCCGGTCTCCC
DNA 2: TGGTGGCTACGACGGGATT
B23: UUAUUUC (DNA:RNA)
RNA: B1 RNA with G25U, A29U, G30U, G31C
DNA 1: CAATCTGAATTCCGGTCTCCC
DNA 2: TGGTGGCTACGACGGGATT
B24: GAAUAGU (DNA:RNA)
RNA: B1 RNA with U26A, G31U
DNA 1: CAATCTGAATTCCGGTCTCCC
DNA 2: TGGTGGCTACGACGGGATT
B25: AUGCAAU (DNA:RNA)
RNA: B3 RNA with G26U, U27G, G28C, U29A, U30A
DNA 1: CAATCTGAATTCCGGTCTCCC
DNA 2: TGGTGGCTACGACGGGATT
B26: GACUCAC (DNA:RNA)
RNA: B1 RNA with U26A, A27C, A29C, G30A, G31C
DNA 1: CAATCTGAATTCCGGTCTCCC
DNA 2: TGGTGGCTACGACGGGATT
B27: AAAGCCG (DNA:RNA)
RNA: B3 RNA with G26A, U27A, U29C, U30C, U31G
DNA 1: CAATCTGAATTCCGGTCTCCC
DNA 2: TGGTGGCTACGACGGGATT
B28: CCAUAAC (DNA:RNA)
RNA: B1 RNA with G25C, U26C, G30A, G31C
DNA 1: CAATCTGAATTCCGGTCTCCC
DNA 2: TGGTGGCTACGACGGGATT
B29: CUUUCCA (DNA:RNA)
RNA: B1 RNA with G25C, A27U, A29C, G30C, G31A
DNA 1: CAATCTGAATTCCGGTCTCCC
DNA 2: TGGTGGCTACGACGGGATT
B30: AAACUCA (DNA:RNA)
RNA: B3 RNA with G26A, U27A, G28C, U30C, U31A
DNA 1: CAATCTGAATTCCGGTCTCCC
DNA 2: TGGTGGCTACGACGGGATT
B31: AUGACGC (DNA:RNA)
RNA: B1 RNA with G25A, A27G, U28A, A29C, G31C
DNA 1: CAATCTGAATTCCGGTCTCCC
DNA 2: TGGTGGCTACGACGGGATT

biological target: T1, RBFOX1 RRM; test: EMSA; HiTS-Eq, 1 nM pool, 10 min; buffer printed only for the single-RNA assays: 10 mM Tris pH 7.5, 150 mM NaCl, 3.4 mM EDTA, 0.001% NP-40, 30 C; details: tags: His6 N-terminal (pET28a); label: 5' 32P
How it was run: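 Relative association constants, normalised to the cognate motif, were derived by comparing read counts of each RNA species with those of the control reaction. The RNA sequenced was the free fraction, separated by 8% native PAGE after a 10 min equilibration in 50 µL of 1 nM 5′-radiolabelled RNA (7 randomized nucleotides) with increasing concentrations of purified wild-type or mutant RbFox RRM.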

Binder	binding signal
B1	0.00932 KA relative to UGCAUGU
B2	0.017 KA relative to UGCAUGU
B3	0.0113 KA relative to UGCAUGU
B4	0.00418 KA relative to UGCAUGU
B5	0.00907 KA relative to UGCAUGU
B6	0.0191 KA relative to UGCAUGU
B7	0.0155 KA relative to UGCAUGU
B8	0.0201 KA relative to UGCAUGU
B9	0.0056 KA relative to UGCAUGU
B10	0.0229 KA relative to UGCAUGU
B11	0.00725 KA relative to UGCAUGU
B12	0.0186 KA relative to UGCAUGU
B13	0.00611 KA relative to UGCAUGU
B14	0.02 KA relative to UGCAUGU
B15	0.00934 KA relative to UGCAUGU
B16	0.00904 KA relative to UGCAUGU

Binder	binding signal
B17	0.0191 KA relative to UGCAUGU
B18	0.00158 KA relative to UGCAUGU
B19	0.0138 KA relative to UGCAUGU
B20	0.0133 KA relative to UGCAUGU
B21	0.0113 KA relative to UGCAUGU
B22	0.00443 KA relative to UGCAUGU
B23	0.00881 KA relative to UGCAUGU
B24	0.0102 KA relative to UGCAUGU
B25	0.00453 KA relative to UGCAUGU
B26	0.00768 KA relative to UGCAUGU
B27	0.00202 KA relative to UGCAUGU
B28	0.00123 KA relative to UGCAUGU
B29	0.00311 KA relative to UGCAUGU
B30	0.000673 KA relative to UGCAUGU
B31	0.00673 KA relative to UGCAUGU
